# In all, about 310,000 compounds went through this assay and about 2,200 (0.71%) showed an effect of 50% or more. The effect is printed as a negative number. The list shows a part of the results.
# Biological target: human ether-à-go-go-related gene (hERG) potassium channel (human, UniProt Q12809)
# Test: primary screen, population patch clamp on CHO cells stably expressing hERG
# human ether-à-go-go-related gene (hERG) potassium channel, sequence (Q12809 whole entry, looked up): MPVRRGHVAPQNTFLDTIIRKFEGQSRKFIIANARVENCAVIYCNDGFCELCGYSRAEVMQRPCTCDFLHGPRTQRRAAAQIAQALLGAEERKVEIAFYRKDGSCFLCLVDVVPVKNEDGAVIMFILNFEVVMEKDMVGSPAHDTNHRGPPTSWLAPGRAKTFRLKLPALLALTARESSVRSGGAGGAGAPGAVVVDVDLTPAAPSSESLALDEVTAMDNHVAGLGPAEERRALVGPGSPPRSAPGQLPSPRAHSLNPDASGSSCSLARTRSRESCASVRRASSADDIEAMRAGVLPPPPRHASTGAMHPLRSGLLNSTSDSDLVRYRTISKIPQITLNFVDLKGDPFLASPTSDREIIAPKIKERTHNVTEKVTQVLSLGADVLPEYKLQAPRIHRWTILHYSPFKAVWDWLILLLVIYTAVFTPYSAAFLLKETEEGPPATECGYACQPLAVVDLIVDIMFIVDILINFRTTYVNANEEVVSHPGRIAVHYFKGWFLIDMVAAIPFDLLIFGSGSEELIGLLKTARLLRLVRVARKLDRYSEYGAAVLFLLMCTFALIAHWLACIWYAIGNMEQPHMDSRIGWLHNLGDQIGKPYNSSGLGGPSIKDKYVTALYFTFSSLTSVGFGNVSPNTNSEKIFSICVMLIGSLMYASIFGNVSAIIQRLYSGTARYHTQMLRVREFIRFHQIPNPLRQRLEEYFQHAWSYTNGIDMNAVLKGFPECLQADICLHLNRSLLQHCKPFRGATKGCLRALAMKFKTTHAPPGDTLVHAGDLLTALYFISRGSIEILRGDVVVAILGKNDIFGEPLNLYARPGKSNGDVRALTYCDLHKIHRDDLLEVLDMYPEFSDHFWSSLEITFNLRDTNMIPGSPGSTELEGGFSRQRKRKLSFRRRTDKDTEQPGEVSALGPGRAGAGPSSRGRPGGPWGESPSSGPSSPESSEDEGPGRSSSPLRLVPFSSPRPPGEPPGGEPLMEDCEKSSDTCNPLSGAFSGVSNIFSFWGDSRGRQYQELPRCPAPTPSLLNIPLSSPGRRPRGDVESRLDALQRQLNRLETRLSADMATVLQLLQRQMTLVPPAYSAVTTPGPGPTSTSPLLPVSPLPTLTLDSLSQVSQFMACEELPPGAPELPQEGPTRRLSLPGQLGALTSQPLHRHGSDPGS
row,Compound,"hERG current change (%, negative = inhibition) at 1uM [%]"
1,NS(=O)(=O)c1ccc(NC(=O)COC(=O)CSCc2ccc(F)cc2)cc1,8.94
2,O=C(OCc1ccccc1F)c1ccc2c(c1)OCCO2,11
3,O=[N+]([O-])c1cccc(-c2nnc3c4ccccc4c4ccccc4n23)c1,8.67
4,COc1ccccc1NC(=O)C(C)OC(=O)c1cccc(-n2cnnn2)c1 (centres unmarked),-4.04
5,CC(=O)Nc1ccc(SCCN2CC[C@@H](O)CCC2=O)cc1,8.45
6,Cc1onc(-c2ccccc2Cl)c1C(=O)Nc1ccc(-n2nncc2-c2ccco2)cc1,5.59
7,COc1ccc(CN2CCN(Cc3cccc4nonc34)CC2CCO)c(C)c1C (centres unmarked),-7.13
8,O=C(O)c1ccc(N2C(=O)CC(N3CCC(c4nc5ccccc5[nH]4)CC3)C2=O)cc1 (centres unmarked),12.3
9,O=C(CSc1nnc(-c2ccccc2Br)o1)N1CCN(C(=O)c2ccco2)CC1,-9.7
10,O=C(CSc1ncnc2c1nnn2Cc1ccccc1)NC1CCCCC1,-2.06
11,COCCn1nnnc1C(C(C)C)N1CCOCC1.Cl (centres unmarked),9.91
12,COCCCNCCOCCOc1ccc(Cl)cc1Br.O=C(O)C(=O)O,-19.4
13,CCOc1cc(/C=N\NC(=O)c2ccc(NC(=O)C(C)(C)C)cc2)ccc1OC(=O)c1cccc(C)c1,6.95
14,O=C(CCc1nnc(CCCc2ccccc2)o1)NCCc1ccccc1,2.6
15,Cc1ccc(-c2csc(NCCn3c(C(F)(F)F)nc4ccccc43)n2)cc1,5.37
16,CC1(C)CC(=O)C=C(c2ccc(Cl)c(C(F)(F)F)c2)C1,5.81
17,Cc1ccccc1NC(=O)NC(N)=O,8.13
18,CCOc1cc2c(Cl)ncnc2c(OCC)c1OCC,17
19,CC(c1ccco1)N(C(=O)c1ccc(Cl)s1)c1ccccn1 (centres unmarked),11
20,COc1ccc(N(CC(=O)NCc2cccnc2)S(=O)(=O)c2ccccc2[N+](=O)[O-])c(OC)c1,0.92
21,Cc1snc2sc(C(=O)c3ccc(Br)cc3)c(N)c12,9.74
22,OCCC1CN(Cc2nc(-c3ccccc3)cs2)CCN1C1CCCC1 (centres unmarked),-39.2

row,Compound,"hERG current change (%, negative = inhibition) at 1uM [%]"
1,CC(=O)OC(C)[C@H]1CC[C@H]2[C@@H]3CC[C@H]4C[C@@H](OC(C)=O)CC[C@]4(C)C3=CC[C@]12C (some centres unmarked),7.92
2,O=C1OC(c2ccc(Cl)cc2)=N/C1=C\C=C\c1ccco1,21
3,Cc1ccc(S(=O)(=O)NCC(=O)Nc2ccc(C(F)(F)F)cc2)cc1,0.529
4,CC(On1nnc2ccc(S(=O)(=O)N3CCOCC3)cc21)C(=O)Nc1ccccc1F (centres unmarked),5.04
5,CC(=O)c1ccc(NC(=O)N2CCN(c3ccc(C)cc3)C(C)C2)cc1 (centres unmarked),3.77
6,CCCCNC(=O)C1CC(=O)N(C2CCCC2)C1 (centres unmarked),9.88
7,COCc1cc(=O)n2c(-c3ccc(C)cc3)n[nH]c2n1,8
8,COc1ccc2cnn(-c3ccccc3)c(=O)c2c1OC,10.1
9,COc1ccc(CC(NC(C)=O)C(=O)NC2CCN(C(=O)Nc3ccccc3Cl)CC2)cc1OC (centres unmarked),14
10,N#C/C(=C\c1ccccc1[N+](=O)[O-])C(=O)NC1CCCCC1,3.5
11,O=C(NCCCO)c1nc2ccccc2s1,2.2
12,Cn1c(=O)c2c(ncn2Cc2ccc(Cl)cc2)n(C)c1=O,5.78
13,CN(CCO)c1cc(N2CCN(C(=O)c3ccco3)CC2)c2nonc2c1[N+](=O)[O-],-1.3
14,COC(=O)CNC(=O)/C=C/c1cc(Br)ccc1OC,11.4
15,CC(C)CN1C(=O)C(=O)N(CC(=O)Nc2cc(Cl)ccc2Oc2ccccc2)C1=O,2.76
16,Cc1cc(N2CCN(C)CC2)nc2ccc(NC(=O)CCC(=O)NCCC3=CCCCC3)cc12,-5.36
17,CC(=O)c1cccc(NC(=O)N2CCCCCC2)c1,11
18,Cc1c(C(=O)OCC(=O)c2c(N)n(CC(C)C)c(=O)n(C)c2=O)oc2ccccc12,16.4
19,O=C(CN1CCCCC1)Nc1ccccc1Oc1ccccc1,10.1
20,Cc1cc(C)nc(-n2ncc3c2CC(c2ccc(C(C)C)cc2)CC3=O)n1 (centres unmarked),9.52
21,COc1ccc(CNC(=O)c2cnn3c(C(F)F)cc(C)nc23)cc1OC,10.8
22,COc1ccc(Cl)cc1NC(=O)COC(=O)/C=C/c1c(C)nn(C2CCS(=O)(=O)C2)c1Cl (centres unmarked),-1.91

# Reference: article PMC4336329 (PLoS ONE, 2015)
